Experimental data taken from the supplement of paper PMC8728848.
The other results are listed elsewhere or left out.

What was measured:
Test in all cases: glycan array binding signal (z-score within array); higher = stronger binding
Conditions in all cases: glycan notation: IUPAC condensed, linker removed
[1] = target: Gal(b1-3)GlcNAc(b1-6)GalNAc
How it was run: (§1)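 Glycan array data came from 3228 arrays in the Consortium for Functional Glycomics database, and only arrays with an available protein sequence were kept. Glycan names were put into IUPAC-condensed notation, and columns mapping to the same glycan were averaged. The binding signal is a within-array Z-score, averaged across arrays of one protein sequence run at different concentrations or buffers and across linkers. A negative Z-score can be read as non-binding.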

[2] = target: Gal(b1-3)GlcNAc(b1-6)[Gal(b1-3)]GalNAc
How it was run: as §1

Gal(b1-3)GlcNAc6S = target: Gal(b1-3)GlcNAc6S
How it was run: as §1

[3] = target: Gal(b1-3)[Fuc(a1-4)]GlcNAc
How it was run: as §1

[4] = target: Gal(b1-3)[Fuc(a1-4)]GlcNAc(b1-2)Man
How it was run: as §1

[5] = target: Gal(b1-3)[Fuc(a1-4)]GlcNAc(b1-2)Man(a1-3)[Gal(b1-3)[Fuc(a1-4)]GlcNAc(b1-2)Man(a1-6)]Man(b1-4)GlcNAc(b1-4)[Fuc(a1-6)]GlcNAc
How it was run: as §1

[6] = target: Gal(b1-3)[Fuc(a1-4)]GlcNAc(b1-3)Gal(b1-3)[Fuc(a1-4)]GlcNAc
How it was run: as §1

[7] = target: Gal(b1-3)[Fuc(a1-4)]GlcNAc(b1-3)Gal(b1-4)[Fuc(a1-3)]GlcNAc
How it was run: as §1

[8] = target: Gal(b1-3)[Fuc(a1-4)]GlcNAc(b1-6)GalNAc
How it was run: as §1

[9] = target: Gal(b1-3)[GlcNAc(b1-6)]GalNAc
How it was run: as §1

[10] = target: Gal(b1-3)[Neu5Ac(a2-6)]GalNAc
How it was run: as §1

[11] = target: Gal(b1-3)[Neu5Ac(a2-6)]GlcNAc(b1-4)Gal(b1-4)Glc
How it was run: as §1

[12] = target: Gal(b1-3)[Neu5Ac(b2-6)]GalNAc
How it was run: as §1

Gal(b1-4)Gal = target: Gal(b1-4)Gal
How it was run: as §1

[13] = target: Gal(b1-4)GalNAc(a1-3)[Fuc(a1-2)]Gal(b1-4)GlcNAc
How it was run: as §1

[14] = target: Gal(b1-4)GalNAc(b1-3)[Fuc(a1-2)]Gal(b1-4)GlcNAc
How it was run: as §1

Gal(b1-4)Glc = target: Gal(b1-4)Glc
How it was run: as §1

Gal(b1-4)Glc6S = target: Gal(b1-4)Glc6S
How it was run: as §1

Gal(b1-4)GlcNAc = target: Gal(b1-4)GlcNAc
How it was run: as §1

[15] = target: Gal(b1-4)GlcNAc(a1-6)Gal(b1-4)GlcNAc
How it was run: as §1

Gal(b1-4)GlcNAc(b1-2)Man = target: Gal(b1-4)GlcNAc(b1-2)Man
How it was run: as §1

[16] = target: Gal(b1-4)GlcNAc(b1-2)Man(a1-3)Man(b1-4)GlcNAc(b1-4)GlcNAc
How it was run: as §1

[17] = target: Gal(b1-4)GlcNAc(b1-2)Man(a1-3)[Gal(b1-4)GlcNAc(b1-2)Man(a1-6)]Man(b1-4)GlcNAc(b1-4)GlcNAc
How it was run: as §1

[18] = target: Gal(b1-4)GlcNAc(b1-2)Man(a1-3)[Gal(b1-4)GlcNAc(b1-2)Man(a1-6)]Man(b1-4)GlcNAc(b1-4)[Fuc(a1-6)]GlcNAc
How it was run: as §1

[19] = target: Gal(b1-4)GlcNAc(b1-2)Man(a1-3)[Gal(b1-4)GlcNAc(b1-2)Man(a1-6)][Gal(b1-4)GlcNAc(b1-4)]Man(b1-4)GlcNAc(b1-4)[Fuc(a1-6)]GlcNAc
How it was run: as §1

[20] = target: Gal(b1-4)GlcNAc(b1-2)Man(a1-3)[Gal(b1-4)GlcNAc(b1-2)Man(a1-6)][GlcNAc(b1-4)]Man(b1-4)GlcNAc(b1-4)[Fuc(a1-6)]GlcNAc
How it was run: as §1

[21] = target: Gal(b1-4)GlcNAc(b1-2)Man(a1-3)[GlcNAc(b1-2)Man(a1-6)]Man(b1-4)GlcNAc(b1-4)GlcNAc
How it was run: as §1

[22] = target: Gal(b1-4)GlcNAc(b1-2)Man(a1-3)[GlcNAc(b1-4)][Gal(b1-4)GlcNAc(b1-2)Man(a1-6)]Man(b1-4)GlcNAc(b1-4)GlcNAc
How it was run: as §1

[23] = target: Gal(b1-4)GlcNAc(b1-2)Man(a1-3)[Man(a1-6)]Man(b1-4)GlcNAc(b1-4)GlcNAc
How it was run: as §1

[24] = target: Gal(b1-4)GlcNAc(b1-2)Man(a1-6)Man(b1-4)GlcNAc(b1-4)GlcNAc
How it was run: as §1

[25] = target: Gal(b1-4)GlcNAc(b1-2)Man(a1-6)[GlcNAc(b1-2)Man(a1-3)]Man(b1-4)GlcNAc(b1-4)GlcNAc
How it was run: as §1

[26] = target: Gal(b1-4)GlcNAc(b1-2)Man(a1-6)[Man(a1-3)]Man(b1-4)GlcNAc(b1-4)GlcNAc
How it was run: as §1

[27] = target: Gal(b1-4)GlcNAc(b1-2)[Gal(b1-4)GlcNAc(b1-4)]Man(a1-3)[Gal(b1-4)GlcNAc(b1-2)Man(a1-6)]Man(b1-4)GlcNAc(b1-4)GlcNAc
How it was run: as §1

[28] = target: Gal(b1-4)GlcNAc(b1-2)[Gal(b1-4)GlcNAc(b1-4)]Man(a1-3)[Gal(b1-4)GlcNAc(b1-2)[Gal(b1-4)GlcNAc(b1-6)]Man(a1-6)]Man(b1-4)GlcNAc(b1-4)GlcNAc
How it was run: as §1

[29] = target: Gal(b1-4)GlcNAc(b1-2)[Gal(b1-4)GlcNAc(b1-4)]Man(a1-3)[GlcNAc(b1-4)][Gal(b1-4)GlcNAc(b1-2)Man(a1-6)]Man(b1-4)GlcNAc(b1-4)GlcNAc
How it was run: as §1

[30] = target: Gal(b1-4)GlcNAc(b1-2)[Gal(b1-4)GlcNAc(b1-4)]Man(a1-3)[GlcNAc(b1-4)][Gal(b1-4)GlcNAc(b1-2)[Gal(b1-4)GlcNAc(b1-6)]Man(a1-6)]Man(b1-4)GlcNAc(b1-4)GlcNAc
How it was run: as §1

[31] = target: Gal(b1-4)GlcNAc(b1-2)[Gal(b1-4)GlcNAc(b1-6)]Man(a1-6)[Gal(b1-4)GlcNAc(b1-2)Man(a1-3)]Man(b1-4)GlcNAc(b1-4)GlcNAc
How it was run: as §1

[32] = target: Gal(b1-4)GlcNAc(b1-2)[Gal(b1-4)GlcNAc(b1-6)]Man(a1-6)[Gal(b1-4)GlcNAc(b1-2)Man(a1-3)]Man(b1-4)GlcNAc(b1-4)[Fuc(a1-6)]GlcNAc
How it was run: as §1

[33] = target: Gal(b1-4)GlcNAc(b1-2)[Gal(b1-4)GlcNAc(b1-6)]Man(a1-6)[GlcNAc(b1-4)][Gal(b1-4)GlcNAc(b1-2)Man(a1-3)]Man(b1-4)GlcNAc(b1-4)GlcNAc
How it was run: as §1

[34] = target: Gal(b1-4)GlcNAc(b1-2)[Gal(b1-4)GlcNAc(b1-6)]Man(a1-6)[GlcNAc(b1-4)][Gal(b1-4)GlcNAc(b1-2)[Gal(b1-4)GlcNAc(b1-4)]Man(a1-3)]Man(b1-4)GlcNAc(b1-4)[Fuc(a1-6)]GlcNAc
How it was run: as §1

[35] = target: Gal(b1-4)GlcNAc(b1-3)Gal(b1-3)GalNAc
How it was run: as §1

[36] = target: Gal(b1-4)GlcNAc(b1-3)Gal(b1-3)GlcNAc
How it was run: as §1

[37] = target: Gal(b1-4)GlcNAc(b1-3)Gal(b1-4)Glc
How it was run: as §1

[38] = target: Gal(b1-4)GlcNAc(b1-3)Gal(b1-4)GlcNAc
How it was run: as §1

[39] = target: Gal(b1-4)GlcNAc(b1-3)Gal(b1-4)GlcNAc(b1-2)Man(a1-3)[Gal(b1-4)GlcNAc(b1-3)Gal(b1-4)GlcNAc(b1-2)Man(a1-6)]Man(b1-4)GlcNAc(b1-4)GlcNAc
How it was run: as §1

B1: LgFlo1 (Saccharomyces pastorianus), B3IUA8 (protein)
chain: SGSTQACLPVGSRKNGMNVNFYKYSLQDSTTYSDPQYMAYKYSDTKKLGSVSGQTHLSIYYGPNTAFWNTASWSSDLFGFYTTPTNVTVEMTGYFLPPQTGSYTFKFATVDDSAILSVGGSIAFECCAQEQPPITSTDFTINGIKPWDAATPTDIKGSTYMYAGYYYPIKIVYSNAKALARLPVSVVLPDGTEVNDDFEGYVYSFDDDLSQSNCTIPDPSKHTTS
glycan array binding signal (z-score) [1]: -0.244 | glycan array binding signal (z-score) [2]: -0.152 | glycan array binding signal (z-score) (Gal(b1-3)GlcNAc6S): 0.936 | glycan array binding signal (z-score) [3]: -0.345 | glycan array binding signal (z-score) [4]: 1.25 | glycan array binding signal (z-score) [5]: 1.61 | glycan array binding signal (z-score) [6]: 0.079 | glycan array binding signal (z-score) [7]: -0.366 | glycan array binding signal (z-score) [8]: 0.043 | glycan array binding signal (z-score) [9]: -0.193 | glycan array binding signal (z-score) [10]: 0.292 | glycan array binding signal (z-score) [11]: -0.149 | glycan array binding signal (z-score) [12]: -0.151 | glycan array binding signal (z-score) (Gal(b1-4)Gal): 0.893 | glycan array binding signal (z-score) [13]: -0.29 | glycan array binding signal (z-score) [14]: -0.275 | glycan array binding signal (z-score) (Gal(b1-4)Glc): -0.451 | glycan array binding signal (z-score) (Gal(b1-4)Glc6S): -0.025 | glycan array binding signal (z-score) (Gal(b1-4)GlcNAc): -0.354 | glycan array binding signal (z-score) [15]: -0.339 | glycan array binding signal (z-score) (Gal(b1-4)GlcNAc(b1-2)Man): -0.11 | glycan array binding signal (z-score) [16]: -0.471 | glycan array binding signal (z-score) [17]: -0.432 | glycan array binding signal (z-score) [18]: 0.079 | glycan array binding signal (z-score) [19]: -0.422 | glycan array binding signal (z-score) [20]: -0.37 | glycan array binding signal (z-score) [21]: -0.377 | glycan array binding signal (z-score) [22]: -0.121 | glycan array binding signal (z-score) [23]: -0.271 | glycan array binding signal (z-score) [24]: -0.462 | glycan array binding signal (z-score) [25]: -0.333 | glycan array binding signal (z-score) [26]: -0.019 | glycan array binding signal (z-score) [27]: -0.226 | glycan array binding signal (z-score) [28]: -0.165 | glycan array binding signal (z-score) [29]: -0.016 | glycan array binding signal (z-score) [30]: -0.114 | glycan array binding signal (z-score) [31]: 0.549 | glycan array binding signal (z-score) [32]: 0.56 | glycan array binding signal (z-score) [33]: -0.078 | glycan array binding signal (z-score) [34]: -0.236 | glycan array binding signal (z-score) [35]: -0.353 | glycan array binding signal (z-score) [36]: -0.039 | glycan array binding signal (z-score) [37]: -0.196 | glycan array binding signal (z-score) [38]: -0.291 | glycan array binding signal (z-score) [39]: 0.592
